Measured values: patent US11618753B2 (priority 2018, dated 2023)

system: MLKL phosphorylation, HT29-L23 human colorectal adenocarcinoma cells; test: cells; settings: read-out: pMLKL HCS Cell Assay (IC50, uM)

Compound	IC50
Cc1cc(F)c(-c2cc(C(F)(F)F)c3c(N)ncnn23)cc1C(=O)N[C@@H]1CN(C(=O)C2(O)CCCC2)C[C@@H]1F [Example 803, 5-[4-amino-5-(trifluoromethyl)pyrrolo[2,1-f][1,2,4]triazin-7-yl]-4-fluoro-N-[(3R,4S)-4-fluoro-1-(1-hydroxycyclopentanecarbonyl)pyrrolidin-3-yl]-2-methylbenzamide]	0.0034 µM
COc1c(F)cc(-c2cc(C(F)(F)F)c3c(N)ncnn23)cc1C(=O)N[C@@H]1CN(C(=O)CC(F)(F)F)C[C@@H]1F [Example 699, 5-[4-amino-5-(trifluoromethyl)pyrrolo[2,1-f][1,2,4]triazin-7-yl]-3-fluoro-N-[(3R,4S)-4-fluoro-1-(3,3,3-trifluoropropanoyl)pyrrolidin-3-yl]-2-methoxybenzamide]	0.112 µM
Cc1cc(F)c(-c2cc(C(F)(F)F)c3c(N)ncnn23)cc1C(=O)N[C@@H]1CN(C(=O)c2cc(F)ccc2F)C[C@@H]1F [Example 830, 5-[4-amino-5-(trifluoromethyl)pyrrolo[2,1-f][1,2,4]triazin-7-yl]-N-[(3R,4S)-1-(2,5-difluorobenzoyl)-4-fluoropyrrolidin-3-yl]-4-fluoro-2-methylbenzamide]	0.0038 µM
CCc1c(F)cc(-c2cc(C(F)(F)F)c3c(N)ncnn23)cc1C(=O)N[C@@H]1CN(C(=O)C2CC2(F)F)C[C@@H]1F (stereo partly drawn) [Example 649, 5-[4-amino-5-(trifluoromethyl)pyrrolo[2,1-f][1,2,4]triazin-7-yl]-N-[(3R,4S)-1-(2,2-difluorocyclopropanecarbonyl)-4-fluoropyrrolidin-3-yl]-2-ethyl-3-fluorobenzamide]	0.035 µM
CC(C)(C)C(=O)N1C[C@H](F)[C@H](NC(=O)c2cccc(-c3cc(C(F)(F)F)c4c(N)ncnn34)c2F)C1 [Example 765, 3-[4-amino-5-(trifluoromethyl)pyrrolo[2,1-f][1,2,4]triazin-7-yl]-N-[(3R,4S)-1-(2,2-dimethylpropanoyl)-4-fluoropyrrolidin-3-yl]-2-fluorobenzamide]	0.195 µM
Cc1ccc(-c2cc(C(F)(F)F)c3c(N)ncnn23)cc1C(=O)N[C@@H]1CN(C(=O)CC(C(F)(F)F)C(F)(F)F)C[C@@H]1F [Example 996, 5-[4-amino-5-(trifluoromethyl)pyrrolo[2,1-f][1,2,4]triazin-7-yl]-N-[(3R,4S)-4-fluoro-1-[4,4,4-trifluoro-3-(trifluoromethyl)butanoyl]pyrrolidin-3-yl]-2-methylbenzamide]	0.001 µM
COc1ncc(-c2cc(CN3CCC3)c3c(N)ncnn23)cc1C(=O)N[C@@H]1CN(C(=O)C2CC(F)(F)C2)C[C@@H]1F [Example 498, 5-{4-amino-5-[(azetidin-1-yl)methyl]pyrrolo[2,1-f][1,2,4]triazin-7-yl}-N-[(3R,4S)-1-(3,3-difluorocyclobutanecarbonyl)-4-fluoropyrrolidin-3-yl]-2-methoxypyridine-3-carboxamide]	0.0038 µM
Cc1nc(C)c(-c2cc(C(F)(F)F)c3c(N)ncnn23)cc1C(=O)N[C@@H]1CN(C(=O)CC(C(F)(F)F)C(F)(F)F)C[C@@H]1F [Example 1193, 5-[4-amino-5-(trifluoromethyl)pyrrolo[2,1-f][1,2,4]triazin-7-yl]-N-[(3R,4S)-4-fluoro-1-[4,4,4-trifluoro-3-(trifluoromethyl)butanoyl]pyrrolidin-3-yl]-2,6-dimethylpyridine-3-carboxamide]	0.029 µM
COc1ncc(-c2cc(C(F)(F)F)c3c(N)ncnn23)cc1C(=O)N[C@@H]1CN(C(=O)C(F)(F)F)C[C@@H]1F [Example 1228, 5-[4-amino-5-(trifluoromethyl)pyrrolo[2,1-f][1,2,4]triazin-7-yl]-N-[(3R,4S)-4-fluoro-1-(2,2,2-trifluoroacetyl)pyrrolidin-3-yl]-2-methoxypyridine-3-carboxamide]	0.04 µM
